This is one part of the list.

The target in the experiment is T1, OsWOX13 (Oryza sativa, UniProt Q5QMM3 1-267).
T1 sequence: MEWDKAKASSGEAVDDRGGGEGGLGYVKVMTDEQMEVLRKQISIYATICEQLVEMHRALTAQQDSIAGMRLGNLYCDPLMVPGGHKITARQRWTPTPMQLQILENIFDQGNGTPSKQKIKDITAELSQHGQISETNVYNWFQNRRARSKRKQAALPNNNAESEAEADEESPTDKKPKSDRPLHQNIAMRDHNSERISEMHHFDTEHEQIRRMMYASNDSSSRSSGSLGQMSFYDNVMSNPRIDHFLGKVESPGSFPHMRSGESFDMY
In words: protein-binding microarray (RPBM); PBS, 2% BSA, 51.3 ng/ul salmon testes DNA, 50 uM zinc acetate, 200 nM TF, 25 C, 1 h; high values mean tight binding. The conditions noted are these: protein: recombinant; tags: N-terminal polyhistidine and DsRed monomer fusion (pET32a); label: CyDye5-dUTP incorporated in the synthesized complementary strand; 3' TTTTT single-stranded linker to array surface; dsDNA, one strand shown. The method, boiled down: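 Ni–NTA purification followed expression in E. coli BL21-CodonPlus of transcription factors fused N-terminally to a polyhistidine tag and DsRed. At 200 nM in PBS with 2% BSA, salmon testes DNA and 50 µM zinc acetate, the protein was incubated for 1 h at 25 °C with a custom Agilent array that had been primer-extended with Cy5-dUTP and blocked with 2% BSA. After washing, the array was read on an Axon 4000B scanner. The binding signal is per-feature fluorescence intensity in arbitrary units.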
“TATATTGATCTAGACATCTAGCCACAATCAGGCAAGGCCACGGAGTCACCTAGTGCAG”: the binding signal is 3650 fluorescence intensity (a.u.).

As to “CCCTTGATTTTCTTTCCACACCACCGGGACGCGCGTGCCACGGAGTCACCTAGTGCAG”, the binding signal is 12200 fluorescence intensity (a.u.).

For “CAGTAAATTAACCGATGCTAAGATTTGTAACCTACTCTATCGGAGTCACCTAGTGCAG”, the binding signal was 13700 fluorescence intensity (a.u.).

For “ACAGGTTGATATCTATCACGAATTCAGAATGAGCACGCCGCGGAGTCACCTAGTGCAG”, the binding signal was 5100 fluorescence intensity (a.u.).

As for “GAGTAAATTTCAGAAAACTGAAATTATAGTGATAAAACTACGGAGTCACCTAGTGCAG”, the binding signal was 4330 fluorescence intensity (a.u.).

For “GCGTCATGATTTGACAATGTGGTGCTATAGTAAACATTTGCGGAGTCACCTAGTGCAG”, the binding signal was 20400 fluorescence intensity (a.u.).

Consider “CGTAATAGACGACCCCATGACCACCCGAGGCAGCTCTGGCCGGAGTCACCTAGTGCAG”, for which the binding signal is 18500 fluorescence intensity (a.u.).

For “ACTCTGATTATGGATATATTTGACCTTTTCATAGTTCTCCCGGAGTCACCTAGTGCAG”, the binding signal was 26200 fluorescence intensity (a.u.).

In the case of “TTTCGCTAATTTGAACAAGTTTAGCAGATTGCCATGCGTACGGAGTCACCTAGTGCAG”, the binding signal was 13600 fluorescence intensity (a.u.).

For the sequence “AACTCAATTAATATTAATTAGTATGTTAATAACAAACTGACGGAGTCACCTAGTGCAG”, the binding signal was 34000 fluorescence intensity (a.u.).

Take “CACAAACAGATTCCACGGTGATCCGAGTAGCAACTGGGAACGGAGTCACCTAGTGCAG”: the binding signal is 4730 fluorescence intensity (a.u.).

For “ATGTGGTACTAATTAACACTTGTTCTGTTGTTGCTAATATCGGAGTCACCTAGTGCAG”, the binding signal is 3170 fluorescence intensity (a.u.).

“CCAGATTTGAAAATTTTGAAAACTTTCAAATCGAGATTTGCGGAGTCACCTAGTGCAG”: the binding signal is 5340 fluorescence intensity (a.u.).

Take “TTAACTAATAAATAAGTATTAACTATTTATATCATATCTACGGAGTCACCTAGTGCAG”: the binding signal was 4490 fluorescence intensity (a.u.).

Turning to “ATCCAAGATTGCAGTCACACTTTGATGCATGAATATTACTCGGAGTCACCTAGTGCAG”, the binding signal was 5860 fluorescence intensity (a.u.).

With “GAGCCTAATTAATCCATGACTAGCCTATGTGATGCTACAACGGAGTCACCTAGTGCAG”, the binding signal was 17900 fluorescence intensity (a.u.).

Turning to “AGACTTGTTTGATTAGATTTGCCCGGAGGACAAAGCAGAGCGGAGTCACCTAGTGCAG”, the binding signal was 23000 fluorescence intensity (a.u.).

“CCTAATTTAGTTCAAATTTCCTGCCCGTTAATATTGGCTTCGGAGTCACCTAGTGCAG”: the binding signal is 24500 fluorescence intensity (a.u.).

With “ATCATGGACTAATTAGGCTCAAAAGATTCGTCTCGCGATTCGGAGTCACCTAGTGCAG”, the binding signal was 7730 fluorescence intensity (a.u.).

Take “TCTCATATGACTGATATGTTCCTCCTCCTCCTCCTTTGGTCGGAGTCACCTAGTGCAG”: the binding signal was 4670 fluorescence intensity (a.u.).

As for “GATGATGATGATTTTGGTAGGAGATATGGATCGTGTTGGTCGGAGTCACCTAGTGCAG”, the binding signal is 16600 fluorescence intensity (a.u.).

With “TGAGTAATCACAGTCGATTTCTTGTTCAATTGATCTCCCTCGGAGTCACCTAGTGCAG”, the binding signal was 6130 fluorescence intensity (a.u.).

On to “AAGAAGGAATAATTAACTATTTGCTACTCTTATGGGTGATCGGAGTCACCTAGTGCAG”, for which the binding signal was 6260 fluorescence intensity (a.u.).

Turning to “CATAGATATTGTCATATACTCGAACAAAATAATTTTCAGTCGGAGTCACCTAGTGCAG”, the binding signal was 45000 fluorescence intensity (a.u.).

In the case of “AATAAACTGTTTTAAATTTGGTGCCCATCGGGTGATGTGACGGAGTCACCTAGTGCAG”, the binding signal was 9920 fluorescence intensity (a.u.).

Consider “TTAGTTAAATTTAAAATAGTTTAACTTTGACTAAAGTTGACGGAGTCACCTAGTGCAG”, for which the binding signal was 5370 fluorescence intensity (a.u.).

In the case of “CGGCCCAAATTCGTCCATCACTTCCCATCCGGCCCATTAACGGAGTCACCTAGTGCAG”, the binding signal was 3370 fluorescence intensity (a.u.).

Take “CACCTGTCATATATAAACTGCGTCTTAGAGTCCGTGCTACCGGAGTCACCTAGTGCAG”: the binding signal was 4000 fluorescence intensity (a.u.).

“CGTGACTAAATATATGATAAATGCATTGTATGAAATAGAGCGGAGTCACCTAGTGCAG”: the binding signal was 9730 fluorescence intensity (a.u.).

With “TTGAATAAACTGATGGGACGTACGTTGCCCGCCGGATTGACGGAGTCACCTAGTGCAG”, the binding signal is 8030 fluorescence intensity (a.u.).

As to “CTGCATGCTAATCAATCATCTGTCAAGGATTAGTAACATACGGAGTCACCTAGTGCAG”, the binding signal was 17900 fluorescence intensity (a.u.).

Turning to “CACTTAATTTGCATTCATGCTAATAAATTACATCTATGGTCGGAGTCACCTAGTGCAG”, the binding signal is 49100 fluorescence intensity (a.u.).

On to “GTAGCATTAAATTGAAGTATAGAATAGTGGTGTTTGCATTCGGAGTCACCTAGTGCAG”, for which the binding signal was 5440 fluorescence intensity (a.u.).

As for “TTGTAATTAAGATCATTGATTATGATACAATTAATGCATACGGAGTCACCTAGTGCAG”, the binding signal was 36700 fluorescence intensity (a.u.).

As for “AGTTATGTGATTATGTTGTTGTTGTTGTTCTTGGATGTGACGGAGTCACCTAGTGCAG”, the binding signal was 8560 fluorescence intensity (a.u.).

As to “TTTATTTAATTGATTCGATGAACTTTGTGCCATTAAAATTCGGAGTCACCTAGTGCAG”, the binding signal is 35000 fluorescence intensity (a.u.).

For “ACCCTAATTCTCCTAATCTCTTAGGAAATATGGAAGAAGCCGGAGTCACCTAGTGCAG”, the binding signal was 3170 fluorescence intensity (a.u.).

Regarding “GCTCTATCACAAAATAAACTAGAGTTATGAAGCTGGATTTCGGAGTCACCTAGTGCAG”, the binding signal is 4850 fluorescence intensity (a.u.).

“CTGATCTTCTTTAATTAGACGGACACCATGACCACCAGATCGGAGTCACCTAGTGCAG”: the binding signal is 7190 fluorescence intensity (a.u.).

Turning to “AAAATCGATTGTAAATTGCCTTTATCGAAATTAGGATCTACGGAGTCACCTAGTGCAG”, the binding signal is 4860 fluorescence intensity (a.u.).

“TAAACAGATGGAGATATAATTATTCATGCCGCTAATTTGTCGGAGTCACCTAGTGCAG”: the binding signal was 15900 fluorescence intensity (a.u.).

“GAGGAAGAAGAGGGGATTGACAATGACAGGCGGGGCACACCGGAGTCACCTAGTGCAG”: the binding signal was 12800 fluorescence intensity (a.u.).

Source of the values: article PMC7819943, “Rice protein-binding microarrays: a tool to detect cis-acting elements near promoter regions in rice”.
